Reference: the supplement of paper PMC10724272
MIC of invasive clinical C. tropicalis isolates, CLSI broth microdilution (fluconazole 0.12-256 mg/L, up to 1,024 for the azole-resistant cluster and its neighbour group; other ranges not stated); higher = less susceptible. Call: susceptible or wild type [S] / resistant or non-wild type [R] by CLSI breakpoints or cut-offs; intermediate and dose-dependent carry no call. '<=' and '>=' at the end values are inferred; the source marks only some of them. Isolates are numbered anew.

What follows are test systems tested with CCC(C)n1ncn(-c2ccc(N3CCN(c4ccc(OCC5COC(Cn6cncn6)(c6ccc(Cl)cc6Cl)O5)cc4)CC3)cc2)c1=O [itraconazole] (assay: CLSI broth microdilution.).

Test System | MIC
Candida tropicalis isolate 41 (ERG11 copies: 2, Erg11p: no key change) | 0.06 mg/L [S]
Candida tropicalis isolate 114 (ERG11 copies: 2, Erg11p: no key change) | 0.06 mg/L [S]
Candida tropicalis isolate 52 (ERG11 copies: 2, Erg11p: Y132F, S154F (homozygous)) | 1 mg/L [R]
Candida tropicalis isolate 431 (ERG11 copies: 2, Erg11p: no key change) | 0.12 mg/L [S]
Candida tropicalis isolate 366 (ERG11 copies: 8, Erg11p: Y132F, S154F (heterozygous)) | 0.5 mg/L [S]
Candida tropicalis isolate 171 (ERG11 copies: 2, Erg11p: no key change) | 0.12 mg/L [S]
Candida tropicalis isolate 278 (ERG11 copies: 2, Erg11p: no key change) | ≥ 16 mg/L [R]
Candida tropicalis isolate 358 (ERG11 copies: 2, Erg11p: Y132F, S154F (heterozygous)) | 0.5 mg/L [S]
Candida tropicalis isolate 363 (ERG11 copies: 2, Erg11p: no key change) | 0.5 mg/L [S]
Candida tropicalis isolate 268 (ERG11 copies: 2, Erg11p: no key change) | 0.25 mg/L [S]
Candida tropicalis isolate 233 (ERG11 copies: 10, Erg11p: Y132F, S154F (heterozygous)) | 1 mg/L [R]
Candida tropicalis isolate 138 (ERG11 copies: 2, Erg11p: no key change) | 0.12 mg/L [S]
Candida tropicalis isolate 224 (ERG11 copies: 2, Erg11p: no key change) | 0.12 mg/L [S]
Candida tropicalis isolate 217 (ERG11 copies: 2, Erg11p: no key change) | 0.25 mg/L [S]
Candida tropicalis isolate 357 (ERG11 copies: 2, Erg11p: no key change) | 0.25 mg/L [S]
Candida tropicalis isolate 231 (ERG11 copies: 2, Erg11p: no key change) | 0.5 mg/L [S]
Candida tropicalis isolate 150 (ERG11 copies: 16, Erg11p: Y132F, S154F (heterozygous)) | 1 mg/L [R]
Candida tropicalis isolate 234 (ERG11 copies: 2, Erg11p: no key change) | 0.25 mg/L [S]

Test System | MIC
Candida tropicalis isolate 385 (ERG11 copies: 2, Erg11p: no key change) | 0.5 mg/L [S]
Candida tropicalis isolate 220 (ERG11 copies: 2, Erg11p: no key change) | 0.25 mg/L [S]
Candida tropicalis isolate 143 (ERG11 copies: 2, Erg11p: no key change) | 0.12 mg/L [S]
Candida tropicalis isolate 145 (ERG11 copies: 7, Erg11p: Y132F, S154F (heterozygous)) | 1 mg/L [R]
Candida tropicalis isolate 48 (ERG11 copies: 8, Erg11p: Y132F, S154F (heterozygous)) | 2 mg/L [R]
Candida tropicalis isolate 133 (ERG11 copies: 2, Erg11p: no key change) | 0.06 mg/L [S]
Candida tropicalis isolate 130 (ERG11 copies: 2, Erg11p: no key change) | 0.25 mg/L [S]
Candida tropicalis isolate 154 (ERG11 copies: 2, Erg11p: no key change) | 0.06 mg/L [S]
Candida tropicalis isolate 390 (ERG11 copies: 2, Erg11p: no key change) | 0.25 mg/L [S]
Candida tropicalis isolate 272 (ERG11 copies: 2, Erg11p: no key change) | ≥ 16 mg/L [R]
Candida tropicalis isolate 296 (ERG11 copies: 2, Erg11p: no key change) | 0.25 mg/L [S]
Candida tropicalis isolate 209 (ERG11 copies: 2, Erg11p: no key change) | 0.25 mg/L [S]
Candida tropicalis isolate 5 (ERG11 copies: 6, Erg11p: Y132F, S154F (heterozygous)) | 0.5 mg/L [S]
Candida tropicalis isolate 426 (ERG11 copies: 2, Erg11p: no key change) | 0.25 mg/L [S]
Candida tropicalis isolate 392 (ERG11 copies: 2, Erg11p: no key change) | 0.12 mg/L [S]
Candida tropicalis isolate 124 (ERG11 copies: 2, Erg11p: no key change) | 1 mg/L [R]
Candida tropicalis isolate 103 (ERG11 copies: 2, Erg11p: no key change) | 0.03 mg/L [S]
Candida tropicalis isolate 206 (ERG11 copies: 2, Erg11p: no key change) | 0.25 mg/L [S]

Each test system was assayed with CCCCCOc1ccc(-c2cc(-c3ccc(C(=O)N[C@H]4C[C@@H](O)[C@@H](O)NC(=O)[C@@H]5[C@@H](O)[C@@H](C)CN5C(=O)[C@H]([C@H](O)CC(N)=O)NC(=O)[C@H]([C@H](O)[C@@H](O)c5ccc(O)c(OS(=O)(=O)O)c5)NC(=O)[C@@H]5C[C@@H](O)CN5C(=O)[C@H]([C@@H](C)O)NC4=O)cc3)no2)cc1 [micafungin] (assay: CLSI broth microdilution.).

Test System | MIC
Candida tropicalis isolate 41 (ERG11 copies: 2, Erg11p: no key change) | 0.03 mg/L [S]
Candida tropicalis isolate 114 (ERG11 copies: 2, Erg11p: no key change) | 0.015 mg/L [S]
Candida tropicalis isolate 52 (ERG11 copies: 2, Erg11p: Y132F, S154F (homozygous)) | 0.03 mg/L [S]
Candida tropicalis isolate 431 (ERG11 copies: 2, Erg11p: no key change) | 0.015 mg/L [S]
Candida tropicalis isolate 366 (ERG11 copies: 8, Erg11p: Y132F, S154F (heterozygous)) | 0.03 mg/L [S]
Candida tropicalis isolate 171 (ERG11 copies: 2, Erg11p: no key change) | 0.008 mg/L [S]
Candida tropicalis isolate 278 (ERG11 copies: 2, Erg11p: no key change) | 0.03 mg/L [S]
Candida tropicalis isolate 358 (ERG11 copies: 2, Erg11p: Y132F, S154F (heterozygous)) | 0.03 mg/L [S]
Candida tropicalis isolate 363 (ERG11 copies: 2, Erg11p: no key change) | 0.06 mg/L [S]
Candida tropicalis isolate 268 (ERG11 copies: 2, Erg11p: no key change) | 0.03 mg/L [S]
Candida tropicalis isolate 233 (ERG11 copies: 10, Erg11p: Y132F, S154F (heterozygous)) | 0.06 mg/L [S]
Candida tropicalis isolate 138 (ERG11 copies: 2, Erg11p: no key change) | 0.015 mg/L [S]
Candida tropicalis isolate 224 (ERG11 copies: 2, Erg11p: no key change) | 0.03 mg/L [S]
Candida tropicalis isolate 217 (ERG11 copies: 2, Erg11p: no key change) | 0.03 mg/L [S]
Candida tropicalis isolate 357 (ERG11 copies: 2, Erg11p: no key change) | 0.03 mg/L [S]
Candida tropicalis isolate 231 (ERG11 copies: 2, Erg11p: no key change) | 0.03 mg/L [S]
Candida tropicalis isolate 150 (ERG11 copies: 16, Erg11p: Y132F, S154F (heterozygous)) | 0.06 mg/L [S]
Candida tropicalis isolate 234 (ERG11 copies: 2, Erg11p: no key change) | 0.03 mg/L [S]

Test System | MIC
Candida tropicalis isolate 385 (ERG11 copies: 2, Erg11p: no key change) | 0.06 mg/L [S]
Candida tropicalis isolate 220 (ERG11 copies: 2, Erg11p: no key change) | 0.015 mg/L [S]
Candida tropicalis isolate 143 (ERG11 copies: 2, Erg11p: no key change) | 0.03 mg/L [S]
Candida tropicalis isolate 145 (ERG11 copies: 7, Erg11p: Y132F, S154F (heterozygous)) | 0.03 mg/L [S]
Candida tropicalis isolate 48 (ERG11 copies: 8, Erg11p: Y132F, S154F (heterozygous)) | 0.03 mg/L [S]
Candida tropicalis isolate 133 (ERG11 copies: 2, Erg11p: no key change) | 0.03 mg/L [S]
Candida tropicalis isolate 130 (ERG11 copies: 2, Erg11p: no key change) | 0.06 mg/L [S]
Candida tropicalis isolate 154 (ERG11 copies: 2, Erg11p: no key change) | 0.03 mg/L [S]
Candida tropicalis isolate 390 (ERG11 copies: 2, Erg11p: no key change) | 0.015 mg/L [S]
Candida tropicalis isolate 272 (ERG11 copies: 2, Erg11p: no key change) | 0.015 mg/L [S]
Candida tropicalis isolate 296 (ERG11 copies: 2, Erg11p: no key change) | 0.03 mg/L [S]
Candida tropicalis isolate 209 (ERG11 copies: 2, Erg11p: no key change) | 0.03 mg/L [S]
Candida tropicalis isolate 5 (ERG11 copies: 6, Erg11p: Y132F, S154F (heterozygous)) | 0.03 mg/L [S]
Candida tropicalis isolate 426 (ERG11 copies: 2, Erg11p: no key change) | 0.03 mg/L [S]
Candida tropicalis isolate 392 (ERG11 copies: 2, Erg11p: no key change) | 0.03 mg/L [S]
Candida tropicalis isolate 124 (ERG11 copies: 2, Erg11p: no key change) | 0.03 mg/L [S]
Candida tropicalis isolate 103 (ERG11 copies: 2, Erg11p: no key change) | 0.015 mg/L [S]
Candida tropicalis isolate 206 (ERG11 copies: 2, Erg11p: no key change) | 0.03 mg/L [S]

The test systems below were run with CCCCCOc1ccc(-c2ccc(-c3ccc(C(=O)N[C@H]4C[C@@H](O)[C@@H](O)NC(=O)[C@@H]5[C@@H](O)[C@@H](C)CN5C(=O)[C@H]([C@@H](C)O)NC(=O)[C@H]([C@H](O)[C@@H](O)c5ccc(O)cc5)NC(=O)[C@@H]5C[C@@H](O)CN5C(=O)[C@H]([C@@H](C)O)NC4=O)cc3)cc2)cc1 [anidulafungin] (assay: CLSI broth microdilution.).

Test System | MIC
Candida tropicalis isolate 41 (ERG11 copies: 2, Erg11p: no key change) | ≤ 0.015 mg/L [S]
Candida tropicalis isolate 114 (ERG11 copies: 2, Erg11p: no key change) | ≤ 0.015 mg/L [S]
Candida tropicalis isolate 52 (ERG11 copies: 2, Erg11p: Y132F, S154F (homozygous)) | 0.12 mg/L [S]
Candida tropicalis isolate 431 (ERG11 copies: 2, Erg11p: no key change) | ≤ 0.015 mg/L [S]
Candida tropicalis isolate 366 (ERG11 copies: 8, Erg11p: Y132F, S154F (heterozygous)) | 0.06 mg/L [S]
Candida tropicalis isolate 171 (ERG11 copies: 2, Erg11p: no key change) | ≤ 0.015 mg/L [S]
Candida tropicalis isolate 278 (ERG11 copies: 2, Erg11p: no key change) | 0.12 mg/L [S]
Candida tropicalis isolate 358 (ERG11 copies: 2, Erg11p: Y132F, S154F (heterozygous)) | 0.06 mg/L [S]
Candida tropicalis isolate 363 (ERG11 copies: 2, Erg11p: no key change) | 0.12 mg/L [S]
